Results published in patent publication US20090286723A1.
pIC50: −log10 of the molar value.

Molecular target: T1, amylin receptors (rat nucleus accumbens membranes) (rat)
T1 sequence 1: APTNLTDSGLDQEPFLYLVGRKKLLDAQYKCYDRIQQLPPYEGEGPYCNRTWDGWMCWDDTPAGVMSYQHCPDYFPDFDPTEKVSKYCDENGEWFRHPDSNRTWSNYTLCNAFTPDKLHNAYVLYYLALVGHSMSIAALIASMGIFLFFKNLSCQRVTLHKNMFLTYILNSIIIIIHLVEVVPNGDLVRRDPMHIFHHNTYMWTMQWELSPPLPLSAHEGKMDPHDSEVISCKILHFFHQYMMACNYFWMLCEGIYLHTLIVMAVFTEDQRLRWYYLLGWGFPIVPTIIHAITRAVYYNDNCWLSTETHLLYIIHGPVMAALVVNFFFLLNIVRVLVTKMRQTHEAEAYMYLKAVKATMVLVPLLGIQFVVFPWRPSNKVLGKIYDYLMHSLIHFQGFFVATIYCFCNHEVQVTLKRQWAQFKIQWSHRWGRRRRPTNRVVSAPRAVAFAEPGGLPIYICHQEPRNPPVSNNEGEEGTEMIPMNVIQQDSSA
T1 sequence 2: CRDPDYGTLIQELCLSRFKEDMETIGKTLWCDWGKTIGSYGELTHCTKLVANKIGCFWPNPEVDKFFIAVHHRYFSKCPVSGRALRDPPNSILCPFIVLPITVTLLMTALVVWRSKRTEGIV
Experiment: amylin RBA

pIC50: 10.40
Substance: [Ser117, dLeu119]leptin(116-122)-Amylin(1-7)-[^11,18Arg]sCT(8-27)-Amylin(33-37) (sequence not shown) (peptide; modification not given)
